PubChem BioAssay AID1347417 (National Center for Advancing Translational Sciences (NCATS), 2020)
Screen size: about 120,000 compounds; about 5,300 (4.4%) were called active. Inconclusive results, whose numbers are uncertain, are shown with a selection of clear calls. Calls follow the shape of the dose curve; as a rule, active = well fitted inhibition curve with a large enough effect; inconclusive = small, poorly fitted or top-dose-only effect; inactive = no such curve, though single readings can be large or run the other way. Where the call is inconclusive, the potency comes from a doubtful curve fit.

Experiment: qHTS Primary assay for Inhibitors of Plasmodium falciparum Dd2 growth in vitro; also: nearly all actives have a fitted effect of over 65% in size
Conditions: P. falciparum Dd2 growth, SYBR Green, 72 h; series mostly up to 28.9 µM
Procedure, shortened: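 Readout: SYBR Green fluorescence, 485 nm excitation, 535 nm emission, after ~16 h lysis at 37C. Before that, Dd2-infected red cells (2.5% hematocrit) grew 72 h with compound, 29 uM top final concentration.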
Potency is read from the fitted curve at half-maximal effect; tags tell the direction and shape of the fitted curve.

SMILES | Potency
Cc1ccc(NC(=O)CCC[C@H]2NC[C@@H]3C[C@H]2CN(Cc2ccccc2)C3)cc1 | inconclusive: 15.8 µM [inhibitor, partial curve, poor fit]
COc1ccc(-c2noc(CSc3nnc(-c4ccncc4)n3-c3ccc(C)cc3)n2)cc1OC | inconclusive: 7.94 µM [inhibitor, partial curve, poor fit]
CCC(C(=O)N1CCN(c2ccc(C#N)cn2)CC1)n1cccn1 (centres undefined) | inactive
COC1CCN(C(=O)c2ccnc(-c3nnc4ccc(Nc5ccccc5)nn34)c2)CC1 | inconclusive: 10 µM [inhibitor, single point]
O=C(Cc1ccc(N(Cc2cccc(F)c2)C(=O)c2ccco2)cc1)Nc1ccccc1 | inconclusive: 0.398 µM [inhibitor, partial curve, poor fit]
COc1ccc(Cn2c(SCc3ccc(C(=O)NC4CCCC4)cc3)nc3cccnc32)cc1 | inconclusive: 6.31 µM [inhibitor, partial curve]
Cc1cnc(-c2ccccc2)n1CC1CCN(S(=O)(=O)Cc2ccccc2F)CC1 | inconclusive: 14.1 µM [inhibitor, single point]
Cc1cccc(NC(=O)CCc2c(C)nc3nc(CNC(=O)c4cccc(F)c4)nn3c2C)c1 | inconclusive: 8.91 µM [inhibitor, partial curve]
CS(=O)(=O)N1Cc2ccccc2CC2(CCN(Cc3ccccc3)C2)C1 (centres undefined) | inconclusive: 10 µM [inhibitor, partial curve, poor fit]
COCc1ccc2c(c1)c(OC(C)(C)C(=O)Nc1ccccc1)nn2Cc1cccnc1 | inactive
O=C(NCc1ccco1)c1ccc2c(c1)N(Cc1cccc(Cl)c1)C(=O)c1ccccc1S2(=O)=O | inconclusive: 15.8 µM [inhibitor, single point]
Cc1ccc(CNC(=O)CSc2cc(C)[nH]c(=O)n2)cc1 | inactive
Cc1ccc(C(=O)N2CCc3sc(C(=O)NCc4ccc(C)o4)cc3C2)cc1 | active: 11.2 µM
Cc1nn(-c2ccccc2)c2nc(C3CC3)cc(C(=O)Nc3ccccc3F)c12 | inconclusive: 11.2 µM [inhibitor, single point]
Cc1ccccc1CC(=O)N[C@@H]1CN(c2ccncn2)C[C@H]1CO | inconclusive: 20 µM [inhibitor, single point]
COc1cccc(CN2CCC(N3Cc4cnc(C)n4C3=O)CC2)c1 | inactive
Fc1ccc(CN2CCc3nc(Nc4ccccc4)ncc3C2)cc1F | inconclusive: 7.94 µM [inhibitor, partial curve, poor fit]
CC1=C[C@@H](CNC2CCOCC2)[C@H](C(C)C)C[C@H]1Cc1nc2ccc(F)cc2[nH]1 | inconclusive: 2.82 µM [inhibitor, partial curve, poor fit]
COc1ccc(C(=O)NC[C@H]2O[C@@H](CC(=O)N(C)Cc3ccccc3)[C@H](O)[C@@H]2O)cc1 | inactive
CCOc1ccc(C(=O)c2cn(Cc3ccccc3OC)c3ccc(F)cc3c2=O)cc1 | active: 10 µM
COc1ccc(-n2c(CC3C(=O)N(C)c4ccc(C)cc43)nc3ccccc3c2=O)cc1 (centres undefined) | inactive
Cc1noc(C)c1-c1cc2cc(CN(C)C)oc2c(NC(C)C)n1 | inconclusive: 3.98 µM [inhibitor, partial curve, poor fit]

SMILES | Potency
Cc1nc(N2CCC(NC(=O)c3ccc(F)cc3)CC2)cc(C(F)(F)F)n1 | inconclusive: 3.98 µM [inhibitor, single point]
COc1ccc(N2CCN(C(=O)c3cc4c(s3)CCN(C(C)=O)C4)CC2)cc1 | inconclusive: 3.98 µM [inhibitor, single point]
CC(=O)Nc1ccc(CN2C(=O)OC3(CCN(C(=O)C(C)C)CC3)C2(C)c2ccccc2)cc1 (centres undefined) | inconclusive: 7.08 µM [inhibitor, partial curve, poor fit]
CC1CCN(C(=O)CSc2nc(-c3ccccc3)no2)CC1 | inconclusive: 8.91 µM [inhibitor, partial curve, poor fit]
CS(=O)(=O)N1CCCN(Cc2cccc(F)c2)CCNC(=O)CC1c1ccccc1 (centres undefined) | inconclusive: 14.1 µM [inhibitor, single point]
CCc1ccc(C(=O)c2cn(CC(=O)Nc3ccc(OC)c(OC)c3)c3ccc(C)cc3c2=O)cc1 | inconclusive: 11.2 µM [inhibitor, single point]
COc1ccc(-c2nnc(SCC(=O)NCc3ccc(C)cc3)nc2-c2ccc(OC)c(OC)c2)cc1OC | inconclusive: 11.2 µM [inhibitor, single point]
N#Cc1ccc2nc([C@H]3CCN(Cc4ccccn4)C3)[nH]c2c1 | inconclusive: 10 µM [inhibitor, partial curve]
CCOc1ccccc1CN1CC[C@H](c2n[nH]c(C)n2)[C@H](NC(=O)C2CC2)C1 | inconclusive: 5.62 µM [inhibitor, partial curve, poor fit]
Cc1cccc(CN2CCN(C(=O)c3cnc4ccccn4c3=O)CC2=O)c1 | inactive
CN1CCCC(CN(CCc2ccccc2)C(=O)c2cc(C#N)cn2C)C1 (centres undefined) | inconclusive: 1.58 µM [inhibitor, partial curve]
CCCNC(=O)N1CCCCC1c1noc(COc2ccc(F)cc2)n1 (centres undefined) | inconclusive: 12.6 µM [inhibitor, single point]
Cc1cc2ncc(C(=O)NCCCc3ccccc3)cn2n1 | inconclusive: 3.16 µM [inhibitor, full curve, poor fit]
CCN(CC)c1cc(C)c2cc(NC(=O)c3ccccc3OC)ccc2n1 | inconclusive: 20 µM [inhibitor, single point]
O=C(NCc1ccco1)[C@@H]1Cc2nc[nH]c2CN1Cc1ccc(Cl)cc1 | inconclusive: 12.6 µM [inhibitor, partial curve]
Cc1cc(C)c(NC(=O)CSc2ccc(-c3sc(-c4ccccc4)nc3C)nn2)c(C)c1 | inactive
O=[N+]([O-])c1cccc(-c2noc([C@@H]3C[C@@H](O)CN3Cc3cccs3)n2)c1 | inactive
CCCCNC(=O)CC(c1cccc2c1OCO2)c1c[nH]c2c(CC)cccc12 (centres undefined) | active: 10 µM
CCC1(N2CCN(C(=O)COc3cccc(Cl)c3)CC2)CCN(C(=O)NC)C1 (centres undefined) | active: 10 µM
Cc1nccn1CC(=O)N[C@@H]1CN(Cc2ccccn2)C[C@H]1CN(C)C | inactive
CCCn1cc(CNc2cc(CC)nc3c(C)c(C)nn23)cn1 | inactive
CC(C)C[C@@H]1N[C@H](C(=O)NCCN2CCCC2)Cc2c[nH]c3cccc1c23 | inconclusive: 5.62 µM [inhibitor, partial curve, poor fit]

SMILES | Potency
Cn1cccc1CN1CCC2(CC1)C(=NC1CCCCC1)NC(=O)N2c1cc(F)cc(F)c1 | inconclusive: 11.2 µM [inhibitor, single point]
Cc1ccc(CN(Cc2ccco2)C(=O)COc2cc(C)c(Cl)c(C)c2)cc1 | inconclusive: 5.01 µM [inhibitor, partial curve, poor fit]
COc1cccc(CN2CCCN(S(=O)(=O)c3ccccc3)CCC(=O)NCC2)c1 | inconclusive: 5.01 µM [inhibitor, partial curve]
COCCN1C(=O)c2[nH]nc(-c3ccccc3O)c2C1c1ccc(Cl)c(Cl)c1 (centres undefined) | inconclusive: 10 µM [inhibitor, single point]
N#Cc1ccc(C(=O)N2CCCN(S(=O)(=O)c3ccccc3)CCC(=O)NCC2)cc1 | inactive
O=C(O)CCCC(=O)N1Cc2ccccc2CC2(CCCN2Cc2ccccc2)C1 (centres undefined) | inactive
COc1ccc(SCc2cc(=O)c3cc(Cl)ccc3[nH]2)cc1 | inconclusive: 3.98 µM [inhibitor, single point]
Cc1cccc(C)c1OCCn1c(C2CC(=O)N(c3cccc(Cl)c3)C2)nc2ccccc21 (centres undefined) | inconclusive: 17.8 µM [inhibitor, single point]
COc1ccc(C(=O)N2CCC(N3C(=O)C(OCC4CC4)C34CCCCC4)CC2)cc1 (centres undefined) | inactive
COCCCNc1nccc(C2(c3ccccc3Cl)CCNCC2)n1 | inconclusive: 4.47 µM [inhibitor, partial curve]
COc1ccc(C(=O)N[C@@H]2CN(S(C)(=O)=O)C[C@H]2CN(C)C)cc1OC | inactive
CC(C)c1ccc(CN2CCC(CNS(=O)(=O)C3CC3)C2)cc1 (centres undefined) | inconclusive: 11.2 µM [inhibitor, single point]
COc1ccc(-c2[nH]c3ccccc3c2SCCNC(=O)c2cc(OC)c(OC)c(OC)c2)cc1 | inconclusive: 11.2 µM [inhibitor, single point]
COc1ccc(-c2cnc3n[nH]c(-c4ccc(F)cc4C)c3n2)cc1OC | inactive
O=C(Cn1cccc1-c1nc(-c2ccccc2)no1)Nc1ccc2c(c1)OCCO2 | inconclusive: 2.82 µM [inhibitor, partial curve, poor fit]
CC(=O)N1CCC2(CC1)OC(=O)N(Cc1ccc(O)cc1)C2(C)c1ccccc1 (centres undefined) | inconclusive: 15.8 µM [inhibitor, partial curve, poor fit]
Cn1cccc1C(=O)N1CC(F)(F)C[C@H]1c1nnc(C2CC2)o1 | inconclusive: 17.8 µM [inhibitor, single point]
O=C(NCCCN1CCc2ccccc2C1)C1CCc2ncc(-c3ccc(F)cc3)n2C1 (centres undefined) | inconclusive: 1 µM [inhibitor, partial curve, poor fit]
Cc1ccc(N2C[C@]34C=C[C@H](O3)C(C(=O)N(C)Cc3nccs3)C4C2=O)cc1C (some centres undefined) | inactive
Cc1oc2ncnc(N3CCCCC3)c2c1C(=O)N1CCN(c2cccc(C(F)(F)F)c2)CC1 | inconclusive: 17.8 µM [inhibitor, single point]
